# Screen size: about 310,000 compounds; about 14,000 (4.5%) showed an effect of 50% or more. Effects have a minus sign here. Some of the results follow.
# Target: human ether-à-go-go-related gene (hERG) potassium channel (human, UniProt Q12809)
# Assay: primary screen, population patch clamp on CHO cells stably expressing hERG
# 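Further: peak tail current of the secondary pulse compared with the same well before compound.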
# human ether-à-go-go-related gene (hERG) potassium channel, sequence (Q12809 whole entry, looked up): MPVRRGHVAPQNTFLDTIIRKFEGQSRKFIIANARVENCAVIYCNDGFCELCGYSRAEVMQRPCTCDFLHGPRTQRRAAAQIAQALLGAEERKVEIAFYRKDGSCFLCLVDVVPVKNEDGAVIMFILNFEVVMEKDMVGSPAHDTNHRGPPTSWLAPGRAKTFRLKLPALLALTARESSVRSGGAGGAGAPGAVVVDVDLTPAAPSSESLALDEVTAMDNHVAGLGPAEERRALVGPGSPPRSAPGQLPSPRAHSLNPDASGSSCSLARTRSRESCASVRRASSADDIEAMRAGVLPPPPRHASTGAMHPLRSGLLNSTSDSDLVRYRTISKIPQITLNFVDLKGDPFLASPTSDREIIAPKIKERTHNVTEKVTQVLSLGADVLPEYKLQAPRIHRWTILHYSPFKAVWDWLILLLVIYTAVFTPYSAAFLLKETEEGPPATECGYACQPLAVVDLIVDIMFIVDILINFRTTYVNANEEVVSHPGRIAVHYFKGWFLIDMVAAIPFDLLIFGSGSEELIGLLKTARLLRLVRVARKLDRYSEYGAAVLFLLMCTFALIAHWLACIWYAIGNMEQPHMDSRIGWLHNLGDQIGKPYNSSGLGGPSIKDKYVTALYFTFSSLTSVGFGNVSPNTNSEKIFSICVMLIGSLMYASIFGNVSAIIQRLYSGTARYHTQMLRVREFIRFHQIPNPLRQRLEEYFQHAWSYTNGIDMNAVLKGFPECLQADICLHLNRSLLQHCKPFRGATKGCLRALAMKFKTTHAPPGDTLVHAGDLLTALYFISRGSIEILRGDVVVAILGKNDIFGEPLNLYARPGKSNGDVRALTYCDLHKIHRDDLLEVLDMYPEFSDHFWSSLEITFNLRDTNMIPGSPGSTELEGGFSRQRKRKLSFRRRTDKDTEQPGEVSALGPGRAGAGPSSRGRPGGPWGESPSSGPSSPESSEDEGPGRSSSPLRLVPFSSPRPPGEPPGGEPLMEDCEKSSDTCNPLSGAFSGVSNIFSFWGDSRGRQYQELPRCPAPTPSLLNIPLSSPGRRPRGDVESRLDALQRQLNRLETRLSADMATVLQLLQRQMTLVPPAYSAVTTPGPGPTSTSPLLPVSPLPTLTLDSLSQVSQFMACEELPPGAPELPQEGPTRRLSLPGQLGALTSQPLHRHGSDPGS
row,SMILES,"hERG current change (%, negative = inhibition) at 10uM [%]"
1,O=C(COc1ccccc1)N1c2ccccc2Sc2ccccc21,5.54
2,COc1ccc2c(c1)CC1(CN2C)C(=O)NC(=O)N(CCc2ccccc2)C1=O (centres unmarked),-13.1
3,CCCNc1cc(C)c(C#N)c2nc3ccccc3n12,10.6
4,CCOc1ccccc1NC(=O)C1CCN(c2ccc(S(=O)(=O)N3CCCC3)cc2)CC1,-6.65
5,CCN(c1ccccc1)S(=O)(=O)c1ccc(C(=O)NCCc2ccc(S(N)(=O)=O)cc2)cc1,5.49
6,O=C(CCS(=O)(=O)c1ccc(F)cc1)N1CCN(c2ccccc2)CC1,-23.2
7,CN1CCCN(C(=O)c2ccc(Cl)cc2)CC1,5.68
8,Cc1ccc(-c2csc3ncnc(Sc4nnc(CN5CCCCCC5=O)o4)c23)cc1,-47.5
9,COc1ccc(-c2cc(C(=O)N3CCc4ccccc4C3)no2)cc1,-0.668
10,Cc1ccccc1N1CCN(C2CCCN(C(=O)c3cc[n+]([O-])cc3)C2)CC1 (centres unmarked),9.87
11,O=C(NC(C(=O)N/N=C/c1cc([N+](=O)[O-])ccc1O)c1n[nH]c(=O)c2ccccc12)c1ccccc1 (centres unmarked),24.2
12,O=C(NCCNS(=O)(=O)c1ccc(C(F)(F)F)cc1)N1CCOCC1,6.84
13,O=C(c1ccco1)N1CCN(Cc2nc(-c3cccs3)no2)CC1,-38.1
14,COc1ccc(C(=O)N/C(=C/c2cccs2)C(=O)NC(C)(C)C)cc1OC,5.42
15,CN1CCC(=O)N([C@H](CSc2ccccc2)c2ccccc2)CC1,-64.9
16,CCOc1nc(-c2ccccc2)ccc1-c1noc(-c2cccs2)n1,7.09
17,CCn1c(C)nc2cc(S(=O)(=O)C(F)(F)C(F)C(F)(F)F)ccc21 (centres unmarked),-8.09
18,COc1ccc2nc(/C=N/NC(=O)CCNC(=O)OC(C)(C)C)ccc2c1,-8.34
19,COc1cc(C2N(C)C(=O)c3ccccc3N2C)ccc1O (centres unmarked),13.2
20,N=C1S/C(=C\c2ccc(O)cc2)C(=O)N1c1ccc(F)cc1,23.3
21,Cn1c(SCC(=O)NC(=O)c2cccc([N+](=O)[O-])c2)nnc1-c1ccc(F)cc1,-23.3
22,CC1=NCCN1S(=O)(=O)c1ccccc1[N+](=O)[O-],24.2

row,SMILES,"hERG current change (%, negative = inhibition) at 10uM [%]"
1,COC(=O)c1sccc1NC(=O)Nc1ccc(OC)cc1OC,-20.3
2,COc1ccc(NC(=O)c2ccccn2)cc1S(=O)(=O)N1CCOCC1,8.52
3,CCCC(=O)O[C@]1(C(=O)CO)CC[C@H]2[C@@H]3CCC4=CC(=O)CC[C@]4(C)[C@H]3[C@@H](O)C[C@@]21C,0.491
4,COC(=O)c1[nH]c2ccccc2c1NS(=O)(=O)c1ccc(OC)cc1OC,-15.8
5,O=C(Nc1ccc(S(=O)(=O)NCc2ccccc2)cc1)C1CCCCC1,17.7
6,CC(C)(C)C(=O)Nc1ncc(C(F)(F)F)cc1Cl,0.581
7,Cc1cccc(OCCC(=O)Nc2ccc(N3CCOCC3)cc2N2CCOCC2)c1,-19.7
8,O=C(N/N=C/c1ccc(C(F)(F)F)cc1)c1ccncc1,-18.9
9,ClCc1csc(-c2ccc(Cl)cc2)n1,-0.346
10,O=C(CN1CC(c2ccccc2)CC1=O)N/N=C/c1cc(Br)ccc1O (centres unmarked),-10.6
11,C=CCn1c(=O)c(C(=O)NCc2ccc3c(c2)OCO3)c(O)c2ccccc21,21
12,CC1CC(C)CN(S(=O)(=O)c2cccc(C(=O)N3C(=O)c4cccc(N)c4C3=O)c2)C1 (centres unmarked),3.91
13,Cc1sc2ncnc(NC(C)C(=O)O)c2c1C (centres unmarked),22.8
14,CC(C)C(=O)N1CCN(c2ccc(NC(=O)c3ccc4c(c3)OCCO4)cc2)CC1,10.6
15,CC1(C)S[C@@H]2[C@H](NC(=O)COc3ccccc3)C(=O)N2C1C(=O)OCc1cc2ccccc2n1S(=O)(=O)c1ccccc1 (some centres unmarked),5.99
16,O=C(Oc1cc(=O)oc2c1c(=O)n1c3c(cccc23)CC1)c1ccc(F)cc1,-12.2
17,COc1cc(C2C3=C(CC(C)(C)CC3=O)NC3=C2C(=O)c2ccccc23)ccc1O (centres unmarked),7.83
18,C=C1CCN([C@@H](CC(C)C)C(=O)NCc2ccc(Cl)c(Cl)c2)S(=O)(=O)c2ccccc21,7.07
19,COCCNC(=O)C(=O)NCCN1CCOCC1,1.18
20,COc1ccc(NC(=O)COc2cccc3c2CCN(Cc2cccnc2)C3=O)cc1,-34.4
21,COc1ccc(C(=O)n2cc(C(=O)c3cc(C)ccc3O)cn2)cc1,5.84
22,O=C(N1CCOCC1)N1c2ccccc2Sc2ccccc21,-12.4

row,SMILES,"hERG current change (%, negative = inhibition) at 10uM [%]"
1,Cc1cc(C)cc(N(CCC(=O)O)S(=O)(=O)c2ccc3ccccc3c2)c1,3
2,O=C(CSc1nnc(COc2ccccc2F)n1-c1ccccc1)NC1CCS(=O)(=O)C1 (centres unmarked),9.97
3,Cc1cccc(C)c1OP(N)(=O)OCC(F)(F)F (centres unmarked),-26.4
4,Cc1cc(C)cc(NC(=S)NCc2ccc(S(N)(=O)=O)cc2)c1,8.2
5,CC1CCN(S(=O)(=O)c2cc(Cl)ccc2Br)CC1,-0.808
6,COC(=O)C1CCN(C(=O)Cc2ccc(C)cc2)CC1,-6.4
7,S=c1[nH]nc(-c2ccc3ccccc3n2)n1-c1ccc(Cl)cc1,12
8,CCOc1ccc(-n2c(C)c(C(C)=O)c(C(C)=O)c2C)cc1,-8.53
9,CC(=O)c1c(C)oc2c1C(=O)c1ccccc1C2=O,-4.64
10,O=S(=O)(NCCc1ccncc1)c1ccc(F)cc1,12
11,O=c1[nH]c(N2CCc3ccccc32)nc2c1CCCC2,-0.355
12,O=C(CNC(=O)c1ccccc1)N/N=C/c1cccs1,3.41
13,COc1ccc(C2C(C(=O)N3CCCCC3)CC(=O)N2c2ccc(OC)cc2)cc1 (centres unmarked),-35.6
14,CN1CCN(C2Cc3ccc(F)cc3Sc3cc(F)c(Cl)cc32)CC1.CS(=O)(=O)O.O (centres unmarked),-77.3
15,COC(=O)C1=C(C)NC2=C(C(=O)CC(C)(C)C2)C1c1cn(Cc2ccc(Br)cc2)nc1-c1ccccc1 (centres unmarked),-41.5
16,CCc1nnc(NC(=O)c2cc(Cl)ccn2)s1,6.87
17,COc1ccc(-c2noc(-c3ccoc3C)n2)cc1,39.5
18,Cc1ccc(C(=O)/C=C/Nc2ccccn2)cc1,-1.05
19,COc1cc(NC(=S)N2CCN(S(=O)(=O)c3ccc(F)cc3)CC2)cc(OC)c1,23
20,CCc1cccc(C)c1NC(=O)c1ccc2c(c1)CCN2S(C)(=O)=O,-21.4
21,O=C(CSc1ncnc2ccccc12)NCC(=O)c1ccccc1,1.57
22,C=COCCn1c(-c2nonc2N)nc2ccccc21,-3.07

row,SMILES,"hERG current change (%, negative = inhibition) at 10uM [%]"
1,Cn1ncc2c(c(SCc3ccc(Cl)cc3Cl)nn2C)c1=O,13.1
2,COc1ccc(-c2cc(C(=O)N3CCCCCC3)no2)cc1,6.31
3,COc1ccc(Cn2nnc3c(=O)[nH]c(C(=O)NCCc4ccc(F)cc4)nc32)cc1OC,7.28
4,CCSc1nnc(-c2ccc(S(=O)(=O)NCc3cccs3)cc2)o1,-1.73
5,CC(C)c1cccc(OCCCCN(C)C)c1.O=C(O)C(=O)O,-14.1
6,CCOC(=O)N1CCN(C(=O)c2ccc(Cn3c(=S)[nH]c4cc(OCC)c(OCC)cc4c3=O)cc2)CC1,9.78
7,CCCCn1c(N)c(N(CCOC)C(=O)c2ccc(COc3ccccc3)o2)c(=O)[nH]c1=O,6.15
8,Cc1cc(NC(=O)CSc2cn(CCNC(=O)c3ccccc3)c3ccccc23)no1,-28.3
9,COc1ccc(CCNC(=O)C2CCN(S(=O)(=O)c3cccc4nsnc34)CC2)cc1OC,-16.3
10,COc1cc(OC)cc(-c2nc(-c3cccs3)no2)c1,16.4
11,CCn1c(CCC(=O)Nc2cc(F)ccc2C)nc2cc(S(=O)(=O)N(C)C)ccc21,-10.9
12,Cc1ccc(CC(=O)N2CCOCC2)cc1,5.01
13,O=C1/C(=C\c2ccco2)NC(=S)N1c1ccccc1,19.2
14,O=S(=O)(NCC(c1ccco1)N1CCc2ccccc2C1)c1ccc(F)cc1 (centres unmarked),0.0316
15,Cl.N=c1sccn1CC(=O)Nc1cccc(S(=O)(=O)N2CCCCCC2)c1,-49.8
16,COc1ccc(C2CC(=O)C3=C(C2)Nc2ccccc2N(C(=O)CCC(=O)O)C3c2ccc(F)cc2)cc1OC (centres unmarked),11.1
17,O=S(=O)(NC1CCCCC1N1CCOCC1)c1ccc(Cl)cc1 (centres unmarked),2.16
18,Cc1cccc(NC(=O)c2ccco2)c1C,22.4
19,CCOC(=O)C1(CC2CCCCO2)CCN(C(=O)Nc2ccc(C)c(C)c2)CC1 (centres unmarked),8.58
20,CCOC(=O)Nc1sc(C(=O)N(CC)CC)c(C)c1C(=O)OCC,-11.5

# — article PMC4336329 (PLoS ONE, 2015)
